Results published in paper PMC4336329 (PLoS ONE, 2015).
Screen size: about 310,000 compounds; about 14,000 (4.5%) showed an effect of 50% or more. Effects have a minus sign here. The list shows a part of the results.

The molecules below were run against human ether-à-go-go-related gene (hERG) potassium channel (human, UniProt Q12809) (assay: primary screen, population patch clamp on CHO cells stably expressing hERG).
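Note: peak tail current of the secondary pulse compared with the same well before compound.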

Chain of human ether-à-go-go-related gene (hERG) potassium channel (Q12809 whole entry, looked up): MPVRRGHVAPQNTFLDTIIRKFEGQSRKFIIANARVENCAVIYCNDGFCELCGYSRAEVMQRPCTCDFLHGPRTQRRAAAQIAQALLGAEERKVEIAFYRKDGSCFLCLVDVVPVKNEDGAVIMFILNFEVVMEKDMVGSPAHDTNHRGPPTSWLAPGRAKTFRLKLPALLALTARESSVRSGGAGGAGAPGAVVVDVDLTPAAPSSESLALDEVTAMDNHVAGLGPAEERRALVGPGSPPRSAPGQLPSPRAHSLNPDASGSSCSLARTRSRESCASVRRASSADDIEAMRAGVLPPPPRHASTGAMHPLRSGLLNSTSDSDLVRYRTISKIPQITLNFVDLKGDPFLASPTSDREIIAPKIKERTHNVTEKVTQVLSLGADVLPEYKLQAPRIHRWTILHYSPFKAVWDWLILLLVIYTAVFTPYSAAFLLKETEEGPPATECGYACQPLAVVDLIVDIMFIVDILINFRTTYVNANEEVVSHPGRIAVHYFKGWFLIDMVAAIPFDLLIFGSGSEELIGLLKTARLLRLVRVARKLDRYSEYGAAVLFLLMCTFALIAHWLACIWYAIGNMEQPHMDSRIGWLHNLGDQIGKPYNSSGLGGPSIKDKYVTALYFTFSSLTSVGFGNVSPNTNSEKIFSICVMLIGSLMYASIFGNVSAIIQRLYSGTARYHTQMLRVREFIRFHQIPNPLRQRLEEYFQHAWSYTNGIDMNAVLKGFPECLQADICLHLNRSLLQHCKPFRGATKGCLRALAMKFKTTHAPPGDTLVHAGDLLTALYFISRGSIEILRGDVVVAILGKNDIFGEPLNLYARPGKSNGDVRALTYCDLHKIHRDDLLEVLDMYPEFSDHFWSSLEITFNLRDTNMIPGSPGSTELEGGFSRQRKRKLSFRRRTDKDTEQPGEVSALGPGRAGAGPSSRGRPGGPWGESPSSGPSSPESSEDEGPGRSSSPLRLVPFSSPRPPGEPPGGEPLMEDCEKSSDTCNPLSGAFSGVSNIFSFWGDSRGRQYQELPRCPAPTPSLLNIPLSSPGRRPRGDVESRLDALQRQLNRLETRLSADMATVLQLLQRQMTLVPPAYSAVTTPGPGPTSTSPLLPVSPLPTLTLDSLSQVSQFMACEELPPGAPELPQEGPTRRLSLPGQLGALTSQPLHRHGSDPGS

SMILES | hERG current change (%, negative = inhibition) at 10uM [%]
CC(=O)c1ccc(OCc2cc(C(=O)N(C)Cc3ncc(C)[nH]3)no2)cc1 | 0.177
O=c1nc(Nc2ccccc2)oc2ccccc12 | 2.79
CCCC(=O)Nc1ccc(C)c(O)c1 | 4.76
COc1ccc(CCNCC(=O)Nc2ccc(C)c(Br)c2)cc1OC.Cl | -33.1
Nc1c(S(=O)(=O)c2cccs2)c2nc3ccccc3nc2n1/N=C/c1cccc(O)c1 | 2.57
Cc1ccc(-c2cc(C(F)F)nc(NCc3cccs3)n2)cc1 | 3.73
O=C1NC(=O)C(CCc2ccncc2)(CCc2ccncc2)C(=O)N1CCc1ccccc1 | -71.7
Oc1ccc(/C=N/NC(=S)N2CCOCC2)cc1 | 10.1
CSc1sc(C(=O)N(C)C)cc1S(=O)(=O)C(C)C | 1.94
COc1ccccc1NC(=S)NC(=O)C(C)C | -21.8
CC1(C)NC(=O)N(CC(=O)N2CCN(S(=O)(=O)c3cc(Cl)ccc3Cl)CC2)C1=O | 1.86
CCOC(=O)c1c(NC(=O)C(C)OC(=O)C2=COCCO2)sc2c1CCCC2 (stereo not drawn) | 8.73
N#C/C(C(=O)N1CCOCC1)=C1/SC(Cc2ccc(F)cc2)C(=O)N1c1ccccc1 (stereo not drawn) | -5.71
COc1cc(CNc2ccc(N3CCN(C(C)=O)CC3)cc2)ccc1OCc1ccccc1 | -5.28
Cc1ccc(-c2cc(C(=O)N/N=C/c3c(C)nn(C)c3C)c3ccccc3n2)c(C)c1 | -7.92
Cl.Oc1ccccc1Nc1nc(NCc2ccco2)c2ccccc2n1 | -29.3
CNc1ccccc1C(C)(C)c1cc(-c2cc(C)cc(C)c2)no1 | 12.6
Cc1ccc(S(=O)(=O)NC(CC(=O)N2CCOCC2)c2ccco2)cc1 (stereo not drawn) | 11.4
CCCCNc1cnn(-c2ccccc2)c(=O)c1Cl | 7.55
COc1cc(/C=C/C(=O)OCC(=O)NCc2cccs2)ccc1OCC#N | -8.86
CCN(CC)CCOC(=O)c1ccc(NC(=O)/C=C/c2cccs2)cc1.Cl | -76.3
CCCCCC(=O)Nc1cccc2ccccc12 | -2.38
Cc1oc(-c2ccc(C(F)(F)F)cc2)nc1CN(Cc1ccccn1)C[C@@H]1CCC(=O)N1 | -38.2

SMILES | hERG current change (%, negative = inhibition) at 10uM [%]
CCN(CC)c1ccc(C=Nc2ccccc2C)c(O)c1 | 0.0297
COc1ccc(NC(=O)Cn2c(=O)n(CC(=O)NCc3ccco3)c(=O)c3ccccc32)cc1OC | 12.4
CC(CCc1ccccc1)NC(=O)c1ccc(NC(=O)c2ccc(Cl)cc2Cl)cc1 (stereo not drawn) | 6.31
C/C(=N\NS(=O)(=O)c1ccc(Br)cc1)c1ccc2c(c1)OCO2 | -17.1
O=C(N/N=C/c1ccc(O)c(O)c1)c1ccc(-n2cnnn2)cc1 | -3.29
Cc1ccc(C)c(N2CCN(c3nc4ccccc4c(=O)n3Cc3ccccc3)CC2)c1 | 14.1
O=C(CSc1nnc(-c2ccco2)n1Cc1ccccc1)NC(=O)NCc1ccccc1 | -13.3
COCCC(=O)N(Cc1ccc2c(c1)OCO2)C(C(=O)NC1CCCCC1)c1ccncc1 (stereo not drawn) | -12.1
CCOC(=O)C1Nc2ccc(C(=O)O)cc2C2C=CCC12 (stereo not drawn) | 21
CC(=O)Nc1ccc(NC(=O)C(C)OC(=O)c2ccc3[nH]c(C)c(C)c3c2)cc1 (stereo not drawn) | 3.39
O=C(NCc1ccccc1Cl)c1cc(=O)[nH]c2ccccc12 | 8.19
CC1CCCCC1NC(=S)NC(=O)c1sc2ccccc2c1Cl (stereo not drawn) | 11.8
COc1ccccc1N1CCN(CC(=O)Nc2cccc(F)c2)CC1 | -28.1
CSC1=NC(=O)/C(=C/c2ccc(SC)cc2)S1 | 38.5
CCOC(=O)c1ccccc1NC(=O)c1ccccc1N(C)S(C)(=O)=O | -9.1
C=CCSc1nnc(NC(=O)C2CC(=O)N(Cc3ccc(C)cc3)C2)s1 (stereo not drawn) | -22.7
CC1CN(c2ccc(NC(=S)NNCCC#N)cc2)CC(C)O1 (stereo not drawn) | 13.1
O=C(Nc1cccc(Cl)c1)c1ccc(=O)[nH]n1 | 3.6
Cc1ccc(C(=O)OCC(=O)NC2CCCC(C)C2C)cc1S(=O)(=O)N1CCCCC1 (stereo not drawn) | -2.28
COc1ccccc1CNC(=O)Cc1ccc(Br)cc1 | -4.93
Cn1c(SCc2ccccc2Cl)nc2c1c(=O)[nH]c(=O)n2C | 13.4
S=C(Nc1ccc2c(c1)OCO2)NC1CCN(Cc2ccccc2)CC1 | -24.2
